Changes are numbered by the printed parent chain; changes in the protein carry UniProt numbers. This is one part of the list.

T1: RBFOX1 RRM (Homo sapiens, UniProt Q9NWB1 109-208)
T1 sequence: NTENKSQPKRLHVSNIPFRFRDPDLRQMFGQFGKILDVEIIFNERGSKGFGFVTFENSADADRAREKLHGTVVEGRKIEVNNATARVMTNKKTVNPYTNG

B1: UGUUAGG (DNA:RNA)
RNA: GGGAGACCGGAAUUCAGAUUGUCCUGUUAGGUUAAAUCCCGUCGUAGCCACCA
DNA 1: CAATCTGAATTCCGGTCTCCC
DNA 2: TGGTGGCTACGACGGGATT
B2: AGGCACG (DNA:RNA)
RNA: B1 RNA with U25A, U27G, U28C, G30C
DNA 1: CAATCTGAATTCCGGTCTCCC
DNA 2: TGGTGGCTACGACGGGATT
B3: AAGCCCC (DNA:RNA)
RNA: GGGAGACCGGAAUUCAGAUUGUCCAAGCCCCUUAAAUCCCGUCGUAGCCACCA
DNA 1: CAATCTGAATTCCGGTCTCCC
DNA 2: TGGTGGCTACGACGGGATT
B4: CGACUAC (DNA:RNA)
RNA: B3 RNA with A25C, A26G, G27A, C29U, C30A
DNA 1: CAATCTGAATTCCGGTCTCCC
DNA 2: TGGTGGCTACGACGGGATT
B5: CUCCUUG (DNA:RNA)
RNA: B3 RNA with A25C, A26U, G27C, C29U, C30U, C31G
DNA 1: CAATCTGAATTCCGGTCTCCC
DNA 2: TGGTGGCTACGACGGGATT
B6: GAUCCCG (DNA:RNA)
RNA: B3 RNA with A25G, G27U, C31G
DNA 1: CAATCTGAATTCCGGTCTCCC
DNA 2: TGGTGGCTACGACGGGATT
B7: GGUCUUG (DNA:RNA)
RNA: B1 RNA with U25G, U28C, A29U, G30U
DNA 1: CAATCTGAATTCCGGTCTCCC
DNA 2: TGGTGGCTACGACGGGATT
B8: GGAAAGC (DNA:RNA)
RNA: B1 RNA with U25G, U27A, U28A, G31C
DNA 1: CAATCTGAATTCCGGTCTCCC
DNA 2: TGGTGGCTACGACGGGATT
B9: UUUAGGC (DNA:RNA)
RNA: B1 RNA with G26U, U28A, A29G, G31C
DNA 1: CAATCTGAATTCCGGTCTCCC
DNA 2: TGGTGGCTACGACGGGATT
B10: CCUGGUC (DNA:RNA)
RNA: B3 RNA with A25C, A26C, G27U, C28G, C29G, C30U
DNA 1: CAATCTGAATTCCGGTCTCCC
DNA 2: TGGTGGCTACGACGGGATT
B11: UCAACGA (DNA:RNA)
RNA: B1 RNA with G26C, U27A, U28A, A29C, G31A
DNA 1: CAATCTGAATTCCGGTCTCCC
DNA 2: TGGTGGCTACGACGGGATT
B12: CGGAAUU (DNA:RNA)
RNA: B1 RNA with U25C, U27G, U28A, G30U, G31U
DNA 1: CAATCTGAATTCCGGTCTCCC
DNA 2: TGGTGGCTACGACGGGATT
B13: GGAAAGA (DNA:RNA)
RNA: B1 RNA with U25G, U27A, U28A, G31A
DNA 1: CAATCTGAATTCCGGTCTCCC
DNA 2: TGGTGGCTACGACGGGATT
B14: UUGCUUG (DNA:RNA)
RNA: B3 RNA with A25U, A26U, C29U, C30U, C31G
DNA 1: CAATCTGAATTCCGGTCTCCC
DNA 2: TGGTGGCTACGACGGGATT
B15: UGUAACG (DNA:RNA)
RNA: B1 RNA with U28A, G30C
DNA 1: CAATCTGAATTCCGGTCTCCC
DNA 2: TGGTGGCTACGACGGGATT
B16: UGCACGG (DNA:RNA)
RNA: B1 RNA with U27C, U28A, A29C
DNA 1: CAATCTGAATTCCGGTCTCCC
DNA 2: TGGTGGCTACGACGGGATT
B17: GCGACCG (DNA:RNA)
RNA: B3 RNA with A25G, A26C, C28A, C31G
DNA 1: CAATCTGAATTCCGGTCTCCC
DNA 2: TGGTGGCTACGACGGGATT
B18: ACUGCGG (DNA:RNA)
RNA: B1 RNA with U25A, G26C, U28G, A29C
DNA 1: CAATCTGAATTCCGGTCTCCC
DNA 2: TGGTGGCTACGACGGGATT
B19: CACCACG (DNA:RNA)
RNA: B3 RNA with A25C, G27C, C29A, C31G
DNA 1: CAATCTGAATTCCGGTCTCCC
DNA 2: TGGTGGCTACGACGGGATT
B20: GUAUCCC (DNA:RNA)
RNA: B3 RNA with A25G, A26U, G27A, C28U
DNA 1: CAATCTGAATTCCGGTCTCCC
DNA 2: TGGTGGCTACGACGGGATT
B21: CGCGGAC (DNA:RNA)
RNA: B3 RNA with A25C, A26G, G27C, C28G, C29G, C30A
DNA 1: CAATCTGAATTCCGGTCTCCC
DNA 2: TGGTGGCTACGACGGGATT
B22: AUACAUG (DNA:RNA)
RNA: B3 RNA with A26U, G27A, C29A, C30U, C31G
DNA 1: CAATCTGAATTCCGGTCTCCC
DNA 2: TGGTGGCTACGACGGGATT
B23: GUAGAAA (DNA:RNA)
RNA: B1 RNA with U25G, G26U, U27A, U28G, G30A, G31A
DNA 1: CAATCTGAATTCCGGTCTCCC
DNA 2: TGGTGGCTACGACGGGATT
B24: UGCAUCU (DNA:RNA)
RNA: B1 RNA with U27C, U28A, A29U, G30C, G31U
DNA 1: CAATCTGAATTCCGGTCTCCC
DNA 2: TGGTGGCTACGACGGGATT
B25: GGGGCAC (DNA:RNA)
RNA: B3 RNA with A25G, A26G, C28G, C30A
DNA 1: CAATCTGAATTCCGGTCTCCC
DNA 2: TGGTGGCTACGACGGGATT
B26: CGGCACG (DNA:RNA)
RNA: B3 RNA with A25C, A26G, C29A, C31G
DNA 1: CAATCTGAATTCCGGTCTCCC
DNA 2: TGGTGGCTACGACGGGATT
B27: AUCGGAC (DNA:RNA)
RNA: B3 RNA with A26U, G27C, C28G, C29G, C30A
DNA 1: CAATCTGAATTCCGGTCTCCC
DNA 2: TGGTGGCTACGACGGGATT
B28: GACUUAU (DNA:RNA)
RNA: B3 RNA with A25G, G27C, C28U, C29U, C30A, C31U
DNA 1: CAATCTGAATTCCGGTCTCCC
DNA 2: TGGTGGCTACGACGGGATT
B29: CGCUAAA (DNA:RNA)
RNA: B1 RNA with U25C, U27C, G30A, G31A
DNA 1: CAATCTGAATTCCGGTCTCCC
DNA 2: TGGTGGCTACGACGGGATT
B30: GUGGAAA (DNA:RNA)
RNA: B3 RNA with A25G, A26U, C28G, C29A, C30A, C31A
DNA 1: CAATCTGAATTCCGGTCTCCC
DNA 2: TGGTGGCTACGACGGGATT
B31: CCGUUUA (DNA:RNA)
RNA: B3 RNA with A25C, A26C, C28U, C29U, C30U, C31A
DNA 1: CAATCTGAATTCCGGTCTCCC
DNA 2: TGGTGGCTACGACGGGATT

In this experiment the target is T1, RBFOX1 RRM. Put plainly: EMSA; HiTS-Eq, 1 nM pool, 10 min; buffer printed only for the single-RNA assays: 10 mM Tris pH 7.5, 150 mM NaCl, 3.4 mM EDTA, 0.001% NP-40, 30 C. Conditions: tags: His6 N-terminal (pET28a); label: 5' 32P. Summed up:
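Relative association constants, normalised to the cognate motif, were derived by comparing read counts of each RNA species with those of the control reaction. The RNA sequenced was the free fraction, separated by 8% native PAGE after a 10 min equilibration in 50 µL of 1 nM 5′-radiolabelled RNA (7 randomized nucleotides) with increasing concentrations of purified wild-type or mutant RbFox RRM.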
On the technique in general: A gel shift assay detects complexes by their altered migration in electrophoresis.
On to B1, for which the binding signal is 0.0114 KA relative to UGCAUGU.
As for B2, the figure is 0.0414 KA relative to UGCAUGU; as for B3, 0.00587 KA relative to UGCAUGU.
As for B4, the figure is 0.00579 KA relative to UGCAUGU; as for B5, 0.0116 KA relative to UGCAUGU; as for B6, 0.0114 KA relative to UGCAUGU.
As to B7, the binding signal is 0.0242 KA relative to UGCAUGU.
Under B8 stands 0.0179 KA relative to UGCAUGU; under B9, 0.0106 KA relative to UGCAUGU.
As for B10, the figure is 0.0104 KA relative to UGCAUGU; as for B11, 0.00534 KA relative to UGCAUGU.
As for B12, the figure is 0.0271 KA relative to UGCAUGU.
As to B13, the binding signal was 0.0132 KA relative to UGCAUGU.
Turning to B14, the binding signal is 0.0749 KA relative to UGCAUGU.
Under B15 stands 0.014 KA relative to UGCAUGU; under B16, 0.077 KA relative to UGCAUGU.
As for B17, the figure is 0.0158 KA relative to UGCAUGU; as for B18, 0.0112 KA relative to UGCAUGU; as for B19, 0.00143 KA relative to UGCAUGU.
Under B20 stands 0.00481 KA relative to UGCAUGU; under B21, 0.01 KA relative to UGCAUGU; under B22, 0.00318 KA relative to UGCAUGU.
B23: the binding signal is 0.00469 KA relative to UGCAUGU.
As for B24, the figure is 0.0208 KA relative to UGCAUGU; as for B25, 0.0252 KA relative to UGCAUGU; as for B26, 0.0377 KA relative to UGCAUGU.
Under B27 stands 0.00433 KA relative to UGCAUGU; under B28, 0.00918 KA relative to UGCAUGU; under B29, 0.00338 KA relative to UGCAUGU.
With B30, the binding signal is 0.0139 KA relative to UGCAUGU.
As for B31, the figure is 0.00336 KA relative to UGCAUGU.

Values taken from PMC9911399, “Two distinct binding modes provide the RNA-binding protein RbFox with extraordinary sequence specificity”.
